Experimental data as given in the supplement of paper PMC4166925.
± gives the standard deviation of the averaged measurements. In all, about 33,000 sequences were measured (“E-score (dimensionless, -0.5 to 0.5)”: median about -0.049, highest 2% from about 0.37 on). The list shows a part of the results.

The sequences below were run on T1, PmTbr T-box DNA-binding domain (GST fusion) (assay: PBM E-score of 8-mer (E-score (dimensionless, -0.5 to 0.5)); Tbr is Tbrain of the sea star Patiria miniata (Pm) or the sea urchin Strongylocentrotus purpuratus (Sp); higher = stronger binding preference; most listed sequences are background and not binding sites). Settings: the construct has about 5 more residues each side.
T1 sequence: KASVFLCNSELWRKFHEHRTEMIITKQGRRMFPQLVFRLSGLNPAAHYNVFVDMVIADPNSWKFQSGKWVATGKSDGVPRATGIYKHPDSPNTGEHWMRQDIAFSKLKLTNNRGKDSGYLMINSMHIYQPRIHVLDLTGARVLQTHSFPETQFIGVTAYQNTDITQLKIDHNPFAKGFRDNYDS
Method: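 Universal protein-binding microarray (Agilent AMADID 016060, 60-bp probes with a 35-bp variable region) incubated with 200 nM GST-fused Patiria miniata Tbr T-box DNA-binding domain (residues 272-466) in PBS pH 7.5. Scored for every ungapped 8-mer (given with its reverse complement) by the Universal PBM Analysis Suite as E-score (modified Wilcoxon-Mann-Whitney enrichment, range -0.5 to 0.5; >0.45 counts as bound) and Z-score of median probe intensity. Two replicate arrays (datasets 1 and 2).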
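Further: 200 nM protein in PBS on universal arrays averaged over duplicate arrays.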

| Sequence | PBM E-score of 8-mer |
| --- | --- |
| GGCATACA | -0.206 ± 0.025 |
| CCCAGAGC | -0.0443 ± 0.14 |
| ACAGTCAC | 0.243 ± 0.0064 |
| TAAGTTGA | -0.0353 ± 0.066 |
| ACTTCCCT | 0.00556 ± 0.045 |
| CAGGCGTA | -0.0498 ± 0.043 |
| GAGTGCCC | -0.0778 ± 0.084 |
| GGTTCACA | 0.372 ± 0.0038 |
| AGATTGAT | -0.208 ± 0.078 |
| GCATAGTA | -0.202 ± 0.024 |
| AAGACGTG | 0.169 ± 0.015 |
| CATGTTGA | 0.1289 ± 0.00047 |
| GCCGTCTA | -0.288 ± 0.021 |
| ATCTGTCG | 0.243 ± 0.022 |
| CCATGCTA | -0.0624 ± 0.055 |
| ATCCCTTA | -0.173 ± 0.026 |
| TCTTCAAA | -0.113 ± 0.02 |
| GCCTACCA | 0.015 ± 0.093 |
| ATAATGAG | -0.171 ± 0.043 |
| CACACCTG | 0.478 ± 0.0049 |
| AGGCACGG | -0.0977 ± 0.04 |
| CTCAGTTC | -0.00404 ± 0.012 |
| AAACTGAT | -0.0131 ± 0.079 |
| AAGTCTTA | -0.119 ± 0.083 |
| GTAACAAC | 0.1282 ± 0.00081 |

| Sequence | PBM E-score of 8-mer |
| --- | --- |
| GGCGTGCA | -0.00275 ± 0.035 |
| GCTAACAA | 0.252 ± 0.013 |
| CTAACAAA | 0.214 ± 0.0057 |
| TACACACA | 0.0579 ± 0.077 |
| GTGCATGA | -0.224 ± 0.014 |
| ACCATAGA | -0.1005 ± 0.00049 |
| CGTCGATC | -0.0623 ± 0.076 |
| CTCATCGC | 0.0527 ± 0.011 |
| AACCAGTA | -0.0469 ± 0.021 |
| CCTGTGCG | 0.0331 ± 0.0047 |
| CAACTTAA | 0.0896 ± 0.057 |
| CGATGTTA | -0.192 ± 0.016 |
| AGTAGAAA | -0.127 ± 0.0088 |
| CACTTACC | 0.284 ± 0.022 |
| GAAGTAAC | -0.0366 ± 0.017 |
| CGGGGAAA | -0.182 ± 0.035 |
| TGCCATAA | 0.0817 ± 0.098 |
| GTGCAACA | 0.256 ± 0.011 |
| TACCCTAA | -0.0671 ± 0.0095 |
| GTGTGATA | 0.46 ± 0.006 |
| AGGTTTAT | -0.119 ± 0.0081 |
| AGGGTACC | -0.0114 ± 0.0027 |
| GCGACATA | 0.188 ± 0.0051 |
| AAGATGGC | 0.0593 ± 0.083 |
| AATTCACC | -0.049 ± 0.069 |

| Sequence | PBM E-score of 8-mer |
| --- | --- |
| GATATCCC | -0.147 ± 0.05 |
| ACGGATCC | -0.173 ± 0.0043 |
| CAATGTGC | 0.234 ± 0.021 |
| GATATGCA | 0.0467 ± 0.019 |
| ATGATCGA | -0.138 ± 0.035 |
| GTCTGGAA | -0.179 ± 0.069 |
| GACGTTAC | -0.12 ± 0.043 |
| AAGGAGCG | -0.147 ± 0.035 |
| ATTATGCC | -0.245 ± 0.014 |
| CAGACATG | 0.0447 ± 0.02 |
| AGCTACCC | -0.278 ± 0.0062 |
| ACAACCGA | 0.075 ± 0.073 |
| CGACCGTC | -0.0536 ± 0.0096 |
| AATTCACT | 0.0313 ± 0.028 |
| AGCGCGCG | 0.144 ± 0.038 |
| ATCCTCAC | 0.346 ± 0.021 |
| ATTGAAGA | -0.234 ± 0.1 |
| AAACCTCG | 0.0655 ± 0.067 |
| ACAGTCCT | -0.0387 ± 0.018 |
| AGTGAGAA | 0.421 ± 0.025 |
| GCTCGCTA | 0.0199 ± 0.011 |
| AGTACCAT | -0.111 ± 0.026 |
| ATAGGAGG | -0.0128 ± 0.039 |
| TGGAATAA | -0.163 ± 0.0046 |
| TTACCCAA | -0.0926 ± 0.082 |

| Sequence | PBM E-score of 8-mer |
| --- | --- |
| ACCACACT | 0.289 ± 0.014 |
| CGGTATCC | -0.331 ± 0.036 |
| CTGAGGGC | -0.0851 ± 0.044 |
| ATAAATAT | -0.0523 ± 0.0045 |
| GACGAAGA | 0.0626 ± 0.051 |
| ATAATTGA | -0.00138 ± 0.11 |
| CCCTCGCG | 0.163 ± 0.022 |
| TAGTGCGA | 0.4056 ± 0.0024 |
| TAGCTTGA | -0.284 ± 0.013 |
| CGTGTAAC | 0.071 ± 0.026 |
| ATCCCTCC | -0.141 ± 0.028 |
| TCGCACCA | 0.44 ± 0.0079 |
| GAGATTAC | 0.0825 ± 0.058 |
| CGCACGGA | -0.0191 ± 0.033 |
| CTACACCC | 0.139 ± 0.008 |
| CGGTCGCC | 0.0664 ± 0.09 |
| GCGGCCAC | -0.195 ± 0.053 |
| CTAGTTTC | 0.00458 ± 0.0045 |
| GAACCGCC | -0.0726 ± 0.028 |
| TCCCCGGA | -0.21 ± 0.055 |
| CGTTCGCC | 0.0701 ± 0.066 |
| CAGGGGAA | -0.11 ± 0.067 |
| CGTAAGGC | -0.177 ± 0.092 |
| ACCTCGGC | 0.12 ± 0.035 |
| ACAGTGCC | 0.0659 ± 0.046 |

| Sequence | PBM E-score of 8-mer |
| --- | --- |
| ACTTGTAG | 0.0486 ± 0.077 |
| GACTTAGC | 0.133 ± 0.055 |
| TCCTCGAA | -0.0611 ± 0.0042 |
| GAAAATTC | 0.0206 ± 0.059 |
| ATCCGCAC | 0.295 ± 0.061 |
| AGACGCAT | -0.261 ± 0.026 |
| CCATAAAG | -0.125 ± 0.03 |
| ATCTTGCC | -0.08073 ± 0.00071 |
| CACAATCA | 0.21 ± 0.0085 |
| GGATACAC | -0.187 ± 0.02 |
| ACTGACTG | 0.0982 ± 0.0061 |
| TAATACTA | -0.193 ± 0.0034 |
| AACGGACA | 0.0752 ± 0.062 |
| ACGGAGCC | -0.0846 ± 0.034 |
| AGGCGTAC | -0.121 ± 0.0064 |
| CCTAATGC | -0.00532 ± 0.015 |
| CTGATAAC | 0.0457 ± 0.0041 |
| ATCTAAAA | -0.196 ± 0.0094 |
| CGCACTCC | 0.224 ± 0.035 |
| AATTTTTC | 0.0134 ± 0.053 |
| ACCCGAAT | 0.0345 ± 0.059 |
| AACCGCAA | -0.214 ± 0.063 |
| CCAAAGCC | -0.279 ± 0.059 |
| ACACAGTC | 0.0668 ± 0.064 |
| CCGTCTAG | -0.123 ± 0.051 |

| Sequence | PBM E-score of 8-mer |
| --- | --- |
| GTCTCTAA | -0.0362 ± 0.057 |
| ACTACATA | -0.185 ± 0.019 |
| CTGATGCC | -0.21 ± 0.043 |
| CTTTCTCC | -0.0631 ± 0.16 |
| CTAATCAC | 0.133 ± 0.0072 |
| AAGGACTG | -0.124 ± 0.051 |
| GCCCTAAC | -0.0192 ± 0.029 |
| GTTCCCGA | -0.175 ± 0.079 |
| CTCATGGC | -0.0877 ± 0.057 |
| TAGCTATA | -0.175 ± 0.012 |
| ACGTGCGA | 0.4433 ± 0.0027 |
| CTCACCAA | 0.211 ± 0.042 |
| ATGGAATC | -0.113 ± 0.077 |
| CAGCACCC | 0.257 ± 0.063 |
| GCTGGCAC | 0.234 ± 0.064 |
| ATCAAGAG | -0.279 ± 0.034 |
| ATTTGTCC | -0.02 ± 0.047 |
| ATTGGACC | -0.11 ± 0.012 |
| ATGAATGG | -0.0554 ± 0.0063 |
| AGGCTCAA | -0.107 ± 0.019 |
| CGCAATTC | 0.096 ± 0.018 |
| ACGCGTAA | 0.205 ± 0.0049 |
| CAAAGCGC | -0.0479 ± 0.039 |
| ACCCGGAT | -0.000825 ± 0.1 |
| ACACGGCG | 0.16 ± 0.0048 |

| Sequence | PBM E-score of 8-mer |
| --- | --- |
| CGGACCAG | -0.355 ± 0.0047 |
| ACCACAGG | 0.132 ± 0.015 |
| ATCCCGCC | -0.124 ± 0.045 |
| ATCTCACG | 0.294 ± 0.016 |
| ATCCTTAG | -0.27 ± 0.0086 |
| GGCTATAA | -0.0886 ± 0.0021 |
| AGATAGAT | -0.217 ± 0.015 |
| GCAACAGA | -0.044 ± 0.051 |
| AACCTCAT | -0.0665 ± 0.025 |
| GTATACGA | -0.16 ± 0.064 |
| AATGAACA | -0.106 ± 0.0032 |
| TTAAACAA | -0.0365 ± 0.021 |
| CATCCGGG | -0.171 ± 0.045 |
| CAAAAGGC | 0.00442 ± 0.079 |
| GGCACGCC | 0.126 ± 0.028 |
| CATTTTCC | -0.0972 ± 0.024 |
| CATTGATC | -0.164 ± 0.03 |
| ATGTATAC | -0.0917 ± 0.039 |
| CGGGCCTA | -0.22 ± 0.029 |
| GACGAGCC | -0.0675 ± 0.1 |
| GAACTTTA | 0.0303 ± 0.057 |
| CGGCCACA | 0.0565 ± 0.0067 |
